Data set [1] deals with LDLR-mediated ligand uptake in HepG2 cells. Nature of the data set: Dil-LDL uptake assay in HepG2 cells (FACScan). Format: cell-based, human. Particulars: HepG2, BBR 10 μg/ml overnight (18 h).
The subject of data set [2] is LDLR promoter. The data set can be described thus: LDLR promoter dual luciferase reporter assay (pLDLR234Luc) in HepG2 cells. It is filed as cell-based, human. Particulars: HepG2, BBR or CND 15 μg/ml, 8 h. The procedure:
FIG. 1E: Analysis of LDLR promoter activity: HepG2 cells were cotransfected with pLDLR234Luc and a normalizing vector pRL-SV40. […] Firefly luciferase and renilla luciferase activities were measured. The data represent normalized LDLR promoter activity.
Transient transfection and dual luciferase reporter assays. HepG2 cells were transfected with plasmid DNA (100 ng/well) by using FuGENE 6 transfection reagent. The DNA ratio of pLDLR234Luc (Li, C et al. J. Biol. Chem. 1999, 274: 6747-6753) to renilla luciferase reporter pRL-SV40 was 90:10. Twenty h after transfection, medium was changed to 0.5% FBS and drugs were added for 8 h prior to cell lysis. The luciferase activity in cell lysate was measured using Dual Luciferase Assay System obtained from Promega. Triplicate wells were assayed for each transfection condition.
(In general: Reporter assays use an easily measured gene product as a stand-in for the process of interest.)

Data set [3] is described as follows: Liver histology (H&E and Oil Red O staining) in HFHC-fed hamsters. Format: in vivo, Golden Syrian hamsters. Particulars: BBR 1.8 mg/d.
Data set [4] is described as follows: Biochemical analyses of hamster blood samples.

SMILES strings stand for the structures.

As for `COc1ccc2cc3[n+](cc2c1OC)CCc1cc2c(cc1-3)OCO2` [BBR, berberine], in data set [1], the “LDLR-mediated ligand (Dil-LDL) uptake increase compared to untreated cells” value came to 2.5 fold. Further, the LDLR promoter activity result in data set [2] is recorded as “not affected at all”. Further, the “hepatocyte morphology and liver steatosis (histology)” value in data set [3] is “Restoration of hepatocyte morphology and reduction of liver steatosis”. Besides, in data set [4] (HFHC hamsters, both doses of goldenseal and BBR, p<0.05), the “elevation of WBC caused by high fat diet” value is listed as “totally suppressed to the base line level”. Besides, in data set [4] (HFHC, BBR 1.8 mg/day (n = 5)), the ALK came to 104 ± 59, the ALT is 181 ± 95, the AST came to 102 ± 17 and the BUN was 18.6 ± 5.8. In data set [4] (HFHC, BBR 1.8 mg/day (n = 5)), this compound showed a GLUCOSE of 152 ± 35 and a WBC of 2675 ± 1617. Moreover, the “liver function and kidney function” value in data set [4] (compared to HFHC fed control animals) is “not significantly changed”.

The record behind these values is patent US20080124404A1 (priority 2006, published 2008).
